# Laboratory results taken from the antibiotic and cytotoxicity screens of Wong et al. (2023).
# The list shows a part of the results.
# How the values were obtained:
# HSkMC = human skeletal muscle cells; assay: cytotoxicity call (relative viability < 0.9); conditions: 10 µM
# HepG2 = assay: cytotoxicity call (relative viability < 0.9); conditions: 10 µM
# S. aureus RN4220 = assay: growth inhibition call (relative growth <= 0.2); conditions: 50 µM
SMILES,cytotoxicity call (HSkMC),cytotoxicity call (HepG2),growth inhibition call (S. aureus RN4220)
C[C@@H]1CN([C@H](C)CO)C(=O)c2cccc(NS(=O)(=O)c3cn(C)cn3)c2O[C@H]1CN(C)C(=O)NC1CCCCC1,inactive,inactive,inactive
C[C@@H]1CN([C@H](C)CO)C(=O)c2cc(-c3cccc(C(=O)N(C)C)c3)cnc2O[C@@H]1CN(C)S(=O)(=O)c1cccc(F)c1,inactive,inactive,inactive
Cc1noc(C)c1NC(=O)Nc1ccc2c(c1)C(=O)N([C@@H](C)CO)C[C@@H](C)[C@@H](CN(C)Cc1ccc(C(=O)O)cc1)OCCCC[C@@H](C)O2,inactive,inactive,inactive
C[C@@H]1CCCCO[C@@H](CN(C)C(=O)c2ccccc2)[C@@H](C)CN([C@H](C)CO)C(=O)c2cc(NC(=O)Nc3ccc(C(F)(F)F)cc3)ccc2O1,inactive,active,inactive
N=C(N)NCCC(=O)O,inactive,inactive,inactive
CO[C@H]1O[C@H](CO)[C@@H](OC(=O)c2ccc(Br)cc2)[C@@H]2OC(=O)[C@H](Cc3cccc(Br)c3)C/C=C/C[C@@H](Cc3cccc(Br)c3)C(=O)O[C@@H]12,inactive,inactive,inactive
COc1ccc(NC(=O)N(C)C[C@H]2Oc3ccc(NC(=O)CCCCCC(=O)Nc4ccccc4N)cc3C(=O)N([C@H](C)CO)C[C@@H]2C)cc1,inactive,inactive,inactive
COC(=O)C[C@H]1CC[C@H]2[C@@H](COC[C@@H](O)CN2S(=O)(=O)c2ccc(F)cc2)O1,inactive,inactive,inactive
C[C@H](CO)N1C[C@H](C)[C@@H](CN(C)Cc2ccc(Oc3ccccc3)cc2)Oc2ccc(NC(=O)Nc3ccc(C(F)(F)F)cc3)cc2CC1=O,active,active,inactive
C[C@@H]1CN([C@@H](C)CO)C(=O)c2cc(NC(=O)CCN3CCOCC3)ccc2O[C@@H]1CN(C)S(=O)(=O)c1cn(C)cn1,inactive,inactive,inactive
C[C@@H]1CN([C@H](C)CO)C(=O)Cc2cc(NC(=O)Nc3ccccc3)ccc2O[C@@H]1CN(C)C(=O)Nc1ccc(C(F)(F)F)cc1,inactive,inactive,inactive
CCCCC[C@H]1C[C@H]1C[C@H]1C[C@H]1CCCCCCCC(=O)O,inactive,inactive,inactive
C[C@@H]1CN([C@@H](C)CO)C(=O)Cc2cc(NC(=O)Nc3ccc(F)cc3)ccc2O[C@@H]1CN(C)Cc1ccc(-c2ccccc2)cc1,inactive,active,inactive
C[C@H]1CN([C@@H](C)CO)S(=O)(=O)c2ccc(Br)cc2O[C@@H]1CN(C)C(=O)Cc1cccnc1,inactive,inactive,inactive
C[C@@H]1CN([C@@H](C)CO)C(=O)c2cc(-c3cccc(C(=O)N(C)C)c3)cnc2O[C@H]1CN(C)C(=O)Cc1ccccn1,inactive,inactive,inactive
O=C(O)P(=O)(O)O,inactive,inactive,active
C[C@@H]1CN([C@H](C)CO)C(=O)c2cc(C#CCN(C)C)cnc2O[C@@H]1CN(C)S(C)(=O)=O,inactive,inactive,inactive
COc1cccc2c1C(=O)c1c(O)c3c(c(O)c1C2=O)C[C@](O)(C(C)=O)C[C@H]3O[C@H]1C[C@@H](N)[C@@H](O)[C@@H](C)O1,active,active,active
Cc1ccc(S(=O)(=O)Nc2ccc3c(c2)C(=O)N([C@H](C)CO)C[C@H](C)[C@H](CN(C)C(=O)Nc2ccc(F)cc2)OCCCC[C@@H](C)O3)cc1,inactive,inactive,inactive
Cc1noc(C)c1NC(=O)N(C)C[C@@H]1OCCCC[C@H](C)Oc2ccc(NC(=O)Nc3ccc(C(F)(F)F)cc3)cc2C(=O)N([C@H](C)CO)C[C@@H]1C,inactive,inactive,inactive
COc1ccc(NC(=O)Nc2ccc3c(c2)C(=O)N([C@H](C)CO)C[C@H](C)[C@@H](CN(C)C(=O)c2ccccc2)OCCCC[C@H](C)O3)cc1,inactive,inactive,inactive
C[C@H]1CN([C@@H](C)CO)S(=O)(=O)c2ccc(C#CCN(C)C)cc2O[C@H]1CN(C)Cc1ccc(F)cc1,inactive,inactive,inactive
CCCOc1ccc(S(=O)(=O)N2CCN(CCO)CC2)cc1-c1nc2c(CCC)cn(CC)c2c(=O)[nH]1,inactive,inactive,inactive
O=C(N[C@@H]1C=C[C@@H](CC(=O)N2CCOCC2)O[C@@H]1CO)c1ccccn1,inactive,inactive,inactive
Cn1c(=O)c2c(nc(Sc3nnc(N)s3)n2C)n(C)c1=O,inactive,inactive,inactive
